Assay results taken from PubChem BioAssay AID504832 (National Center for Advancing Translational Sciences (NCATS), 2011).
About 18,000 (5.8%) of roughly 310,000 compounds were called active. The shares of active, inactive and inconclusive entries below differ from those in the screen. Calls follow the shape of the dose curve; as a rule, active = well fitted inhibition curve with a large enough effect; inconclusive = small, poorly fitted or top-dose-only effect, or another doubt; inactive = no such curve, though single readings can be large or run the other way. Potencies of inconclusive entries are left out as doubtful fits.
% is scaled to controls: 0 for no effect and ±100 for the full control effect; potency is read from the fitted curve at half-maximal effect; tags tell the direction and shape of the fitted curve.

Assay: Primary qHTS for delayed death inhibitors of the malarial parasite plastid, 48 hour incubation
Conditions: P. falciparum luciferase growth in erythrocytes; series mostly up to 28.7 µM
In short: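 A one-generation exposure of luciferase-tagged malaria parasites in RPMI 1640/Albumax erythrocyte culture, 37 C and 5% CO2. Inhibition is inferred from decreased luminescence after adding detection reagent.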
In the case of COc1ccccc1OCCCOc1c(C)cc(C)cc1Br, the Potency is reported as inconclusive [inhibitor, partial curve].
In the case of COc1ccc2c(c1)[nH]c1c(=O)n(/N=C/c3ccc(OC)c(CN4CCCCC4)c3)cnc12, the Potency is reported as inconclusive [inhibitor, full curve].
For NS(=O)(=O)c1cc2c(cc1Cl)NC(Cc1ccccc1)NS2(=O)=O (centres undefined), the Potency was “inactive”.
In the case of COCCSc1ccccc1C(=O)Nc1ccc(S(=O)(=O)N2CCOCC2)cc1, the Potency is reported as inconclusive [inhibitor, partial curve, poor fit].
In the case of Cc1cc2nc(-c3ccco3)cc(C(F)(F)F)n2n1, the Potency is reported as “inactive”.
With CCOc1ccc(NC(=S)N(CCc2c(C)[nH]c3ccc(C)cc23)Cc2ccco2)cc1 the Potency was inconclusive [inhibitor, single point].
In the case of COCc1c(C(=O)OC)nnn1-c1ccc(C(F)(F)F)cc1[N+](=O)[O-], the Potency is reported as inconclusive [inhibitor, full curve, poor fit].
In the case of CCOC(=O)C(NC(=O)CC)(Nc1sc2c(c1C(=O)OC)CCN(C)C2)C(F)(F)F (centres undefined), the Potency is reported as inconclusive [inhibitor, single point].
In the case of Cc1ccccc1Nc1c(-c2ccc(N3CCOCC3)cc2)nc2ncccn12, the Potency is reported as “inactive”.
With CC(C)OC(=O)CSc1nc2ncccc2[nH]1 the Potency was “inactive”.
In the case of COc1cccc(-c2ccc(NC(=O)C3CCCN(Cc4cnc(N(C)C)s4)C3)cc2)c1 (centres undefined), the Potency is reported as inconclusive [inhibitor, single point].
In the case of CC12CCC(C[N+](C)(CCC[N+](C)(C)C)C1)C2(C)C (centres undefined), the Potency is reported as “inactive”.
With CC(CCc1ccccc1)NC(=O)C(C)OC(=O)c1ccco1 (centres undefined) the Potency was inconclusive [inhibitor, partial curve, poor fit].
With Cc1cccc(C)c1NC(=O)C1CCCN1S(=O)(=O)c1ccc(-c2ccc(=O)[nH]n2)s1 (centres undefined) the Potency was inconclusive [inhibitor, single point].
With Cc1cccc(CCNC(=O)CC2C(=O)NCCN2CC2CCCCC2)n1 (centres undefined) the Potency was inconclusive [inhibitor, full curve, poor fit].
With COC(=O)c1ccc(/C=C(\C#N)C(=O)NC(C)c2ccccc2)cc1 (centres undefined) the Potency was inconclusive [inhibitor, single point].
For CCOc1ccc(NS(=O)(=O)c2csc(C(N)=O)c2)cc1, the Potency was active: 1.85 µM.
With CC1=C(C)SC(=C(C#N)c2nnc(N3CCOCC3)n2-c2ccccc2)S1 the Potency was inconclusive [inhibitor, single point].
For COc1cccc(-n2c(=S)sc3c(=O)n(-c4ccccc4OC)c(SCC4OCCO4)nc32)c1, the Potency was inconclusive [inhibitor, partial curve].
With CCC(C)NS(=O)(=O)c1ccc(S(=O)(=O)N2CCCC3(CCCCC3)C2)cc1 (centres undefined) the Potency was inconclusive [inhibitor, single point].
For Cc1cccc(OCc2nc(-c3cccnc3)no2)c1, the Potency was “inactive”.
For Fc1ccc(CNC2CCN(Cc3ccccc3)CC2)cc1, the Potency was active: 9.28 µM.
With Cc1ccc2oc(=O)c(/C=C(\O)C(C)(C)C)nc2c1 the Potency was inconclusive [inhibitor, single point].
In the case of Cc1ccc(P(=S)(c2ccc(C)o2)N2CCOCC2)o1, the Potency is reported as inconclusive [inhibitor, single point].
For CNC(=O)COC(=O)/C=C/c1nc2ccccc2s1, the Potency was “inactive”.
For CCOC(=O)c1c(NC(=O)OC)sc(C(=O)N(CC)CC)c1C, the Potency was active: 5.86 µM.
With COc1ccccc1CCNC1CCC(C)CC1 (centres undefined) the Potency was inconclusive [inhibitor, partial curve].
With Cc1ccc(S(=O)(=O)N2CCN(C(=O)c3ccc(N4CCCCC4)c([N+](=O)[O-])c3)CC2)cc1 the Potency was inconclusive [inhibitor, partial curve].
With Cc1ccc(C(=O)OCC(=O)NCCC2=CCCCC2)s1 the Potency was “inactive”.
For Cc1ccc(-n2nnnc2SCC(=O)NCC2(N3CCOCC3)CCCCC2)cc1, the Potency was inconclusive [inhibitor, single point].
In the case of Clc1ccc(-c2cn3nc4c(nc3n2)CCCC4)cc1, the Potency is reported as “inactive”.
With CCOC(=O)CNS(=O)(=O)c1cc(-c2nnc(Nc3ccc4c(c3)OCO4)c3ccccc23)ccc1C the Potency was active: 2.33 µM.
With CCOc1ccc(NC(=O)C2CCCN(S(=O)(=O)c3cccc4nsnc34)C2)cc1 (centres undefined) the Potency was inconclusive [inhibitor, single point].
In the case of O=[N+]([O-])c1ccccc1S(=O)(=O)NCCSc1ccccc1, the Potency is reported as “inactive”.
With CC(C)CNc1nnnc2c1sc1nc(N3CCOCC3)c3c(c12)CC(C)(C)SC3 the Potency was inconclusive [inhibitor, partial curve, poor fit].
With CCCCn1c(N)c(N(CCOC)C(=O)c2ccc(-c3ccc(C(C)=O)cc3)o2)c(=O)[nH]c1=O the Potency was inconclusive [inhibitor, single point].
With Cc1ccc([N+](=O)[O-])cc1N=C(c1ccc([N+](=O)[O-])cc1)N1CCOCC1 the Potency was inconclusive [inhibitor, partial curve].
In the case of CN1CCN(c2ccc(Cl)cc2NC(=O)c2cc(=O)[nH]c3ccccc23)CC1, the Potency is reported as inconclusive [inhibitor, single point].
In the case of COc1ccc(CCNS(=O)(=O)c2ccc3oc(C(=O)O)c(C)c3c2)cc1OC, the Potency is reported as inconclusive [inhibitor, single point].
In the case of O=C(N/N=C/C=C/c1ccccc1[N+](=O)[O-])c1cccnc1, the Potency is reported as “inactive”.
With O=C(c1ccc(CNS(=O)(=O)c2ccc(Br)cc2)cc1)N1CCC2(CC1)OCCO2 the Potency was inconclusive [inhibitor, single point].
In the case of CCC(C(=O)NC1CC1)n1nc(C)c2c(C)n(-c3ccc(C)cc3)nc2c1=O (centres undefined), the Potency is reported as “inactive”.
With CCO[C@@H]1OC(C(=O)N2CCOCC2)=C[C@H](c2ccccc2)[C@H]1CCCO the Potency was inconclusive [inhibitor, single point].
With COc1ccc(OCC(=O)Nc2ccc3c(c2)nc(CCN2CCN(C)CC2)n3C)cc1 the Potency was “inactive”.
For CN(C)S(=O)(=O)c1cccc(NC(=O)CCc2nc3sc4c(c3c(=O)[nH]2)CCCC4)c1, the Potency was inconclusive [inhibitor, single point].
With CC(C)NC(=O)CSc1nnc(-c2ccc(F)cc2)c2ccccc12 the Potency was inconclusive [inhibitor, single point].
In the case of CC(=O)Nc1ccc(S(=O)(=O)N2CCC(Oc3ccc(-n4cnnn4)cc3)CC2)cc1, the Potency is reported as inconclusive [inhibitor, partial curve, poor fit].
In the case of Clc1ccc2c(N/N=C/c3cccnc3)ccnc2c1, the Potency is reported as active: 0.657 µM.
With COc1cccc(CNC(=O)c2ccc(C)c(S(=O)(=O)N3CCCCC3)c2)c1 the Potency was inconclusive [inhibitor, partial curve, poor fit].
For Cc1cc2ncc(C(N)=O)cn2n1, the Potency was “inactive”.
With COC(=O)c1cc2c(ccn2-c2ccc(F)cc2)n1Cc1cccc(OC)c1 the Potency was inconclusive [inhibitor, single point].
In the case of CC(=O)Oc1ccccc1-c1nc(C)nc(N(C)C(C)=O)n1, the Potency is reported as “inactive”.
For CC(=O)c1cccc(NC(=O)c2cc(=O)[nH]c3ccccc23)c1, the activity change, negative = inhibition was inactive: 3% [at 0.00184 µM].
For CCN1CCN(C(CNC(=O)c2ccc3c(c2)OCO3)c2cccnc2)CC1 (centres undefined), the Potency was “inactive”.
For Cc1cnc(C(=O)Nc2ccc(C(C)C)cc2)cn1, the Potency was “inactive”.
For CCOc1ccc(NC(=S)NCCCN2CCOCC2)cc1, the Potency was inconclusive [inhibitor, single point].
In the case of CCOC(=O)C(=Cc1ccc(-n2cncn2)cc1)C(=O)OCC, the Potency is reported as inconclusive [inhibitor, single point].
For CC(=O)Nc1cccc(NC(=O)c2cc(-c3cccnc3)nc3ccc(Cl)cc23)c1, the Potency was inconclusive [inhibitor, single point].
With Cc1ccc(N2CCN(C(=S)c3ccc(N(C)C)cc3)CC2)cc1 the Potency was inconclusive [inhibitor, single point].
In the case of CC(C)[C@@H](N)C(=O)N/N=C/c1ccc2nccnc2c1, the Potency is reported as inconclusive [inhibitor, single point].
In the case of CCOC(=O)c1sc(NC(=O)/C=C/c2c(F)cccc2Cl)nc1C, the Potency is reported as “inactive”.
For O=C(COC(=O)CNC(=O)c1cccc(Br)c1)Nc1nnc(-c2ccccc2)o1, the Potency was inconclusive [inhibitor, partial curve, poor fit].
In the case of COc1cccc(NC(=O)CN(C)C(=O)c2cc(-c3cccc(Br)c3)nc3ccccc23)c1, the Potency is reported as inconclusive [inhibitor, partial curve, poor fit].
With O=C(CC(NS(=O)(=O)c1ccc(Cl)cc1)c1ccco1)N1CCc2ccccc21 (centres undefined) the Potency was inconclusive [inhibitor, partial curve, poor fit].
With COc1cc(/C=N/NC(=O)c2ccncc2)ccc1OCC(=O)Nc1cccc([N+](=O)[O-])c1 the Potency was “inactive”.
In the case of O=C(Oc1ccc(OC(=O)C2CCC2)cc1)C1CCC1, the Potency is reported as “inactive”.
In the case of O=C(COc1ccc2c3c(c(=O)oc2c1)CCC3)Nc1ccc(CN2CCOCC2)cc1, the Potency is reported as inconclusive [inhibitor, single point].
With Cc1cc2cc(CN(CCCO)S(=O)(=O)c3cccc4nsnc34)c(=O)[nH]c2cc1C the Potency was active: 9.28 µM.
In the case of O=C(CNC(=O)c1sc2ccccc2c1Cl)NCc1cccnc1, the Potency is reported as inconclusive [inhibitor, single point].
